Assay results taken from PubChem BioAssay AID488969 (Vanderbilt High Throughput Screening Facility, 2010).
In all, about 110,000 compounds were measured (“z-score”: median about -0.1, highest 2% from about 2 on). The list shows a part of the results. The source made the active and inactive calls.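 Rule for the calls: active = z-score in the third read window above 3 or below -3; inactive = the rest.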

Biological target: Metabotropic glutamate receptor 8 (Rattus norvegicus) (UniProt P70579)
Test: rat mGluR8 modulators via GIRK flux, primary screen, cell-based, thallium flux, HTS (AID 488969)
Details: HEK293 rat mGluR8, GIRK (G protein-gated inwardly rectifying potassium channel) thallium flux, FluoZin2; at 10 µM; stronger effect = higher value; submaximal glutamate (EC20) added with thallium

UniProt P70579, sequence (P70579 whole entry, looked up): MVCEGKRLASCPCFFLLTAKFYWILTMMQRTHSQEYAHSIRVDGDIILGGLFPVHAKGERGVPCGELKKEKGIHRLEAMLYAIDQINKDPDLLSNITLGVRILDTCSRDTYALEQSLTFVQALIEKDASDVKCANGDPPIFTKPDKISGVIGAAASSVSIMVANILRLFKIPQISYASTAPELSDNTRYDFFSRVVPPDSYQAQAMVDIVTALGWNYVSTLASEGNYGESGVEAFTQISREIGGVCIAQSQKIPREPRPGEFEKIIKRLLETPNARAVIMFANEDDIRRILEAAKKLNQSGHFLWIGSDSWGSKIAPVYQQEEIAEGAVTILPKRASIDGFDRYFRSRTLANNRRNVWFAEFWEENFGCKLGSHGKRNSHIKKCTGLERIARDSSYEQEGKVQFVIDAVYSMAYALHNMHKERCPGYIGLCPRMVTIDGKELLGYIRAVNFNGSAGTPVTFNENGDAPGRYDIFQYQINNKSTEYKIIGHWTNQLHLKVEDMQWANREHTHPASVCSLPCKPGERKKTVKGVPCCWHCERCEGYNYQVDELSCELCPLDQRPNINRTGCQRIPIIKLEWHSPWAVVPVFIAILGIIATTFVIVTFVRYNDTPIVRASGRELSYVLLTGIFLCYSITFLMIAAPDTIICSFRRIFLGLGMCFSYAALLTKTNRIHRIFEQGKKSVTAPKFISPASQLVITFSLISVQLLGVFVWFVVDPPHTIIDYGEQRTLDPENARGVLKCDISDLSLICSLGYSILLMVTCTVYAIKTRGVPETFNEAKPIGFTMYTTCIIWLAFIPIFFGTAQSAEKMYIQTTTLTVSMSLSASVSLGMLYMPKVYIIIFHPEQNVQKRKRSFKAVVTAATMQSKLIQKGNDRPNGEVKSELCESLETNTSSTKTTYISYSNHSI

Row | Structure (SMILES) | z-score
1 | Cc1c(CN(C)C)c2c(n1C)C(=O)c1ccc(Br)cc1-2 | -0.258
2 | CC(C)(C)NC(=O)NC(=O)CN1CCN(c2ncc(C(F)(F)F)cc2Cl)CC1 | -0.519
3 | CCCCNC(=O)CCc1c(C)nc2nc(-c3cc(OC)cc(OC)c3)nn2c1C | -0.28
4 | Cc1ccc(NC(=S)NC(NC(=O)N(C)C)C(Cl)(Cl)Cl)cc1 (configuration not stated) | 1.47
5 | CCOc1ccc(N=c2oc3cc(O)ccc3cc2C(=O)NCC2CCCO2)cc1 (configuration not stated) | -0.319
6 | O=S(=O)(NC1CCCCC1Oc1ccccc1)c1ccc(Cl)cc1 (configuration not stated) | -0.762
7 | CCOc1cc(/C=N\NC(=O)c2ccc(NC(=O)CC)cc2)ccc1OC(=O)c1ccccc1 | -0.103
8 | O=C(/C=C/c1ccc(Cl)cc1)NCCc1ccccc1 | -0.176
9 | O=C(Nc1ccc(Cl)cc1)[C@@H]1[C@@H]2C(=O)N(c3ccc(Cl)cc3)C(=O)[C@@H]2[C@H]2C=CC=NN21 | -0.51
10 | c1ccc2c(-c3nn[nH]n3)cccc2c1 | -0.719
11 | O=C(CS(=O)CC(=O)N(CC(=O)NC1CCCC1)C1CCCC1)Nc1ccc(F)cc1 (configuration not stated) | -0.488
12 | Cc1ccc(C(=O)OCC(=O)Nc2ncc(C(F)(F)F)cc2Cl)cc1NC(=O)c1ccco1 | 0.575
13 | CC(C)CCNC(=O)C1CC(c2cccc([N+](=O)[O-])c2)=NO1 (configuration not stated) | 0.109
14 | Cc1cccc(Nc2nnc(SCc3cn4ccsc4n3)s2)c1 | 0.254
15 | CCN1CCN(C(=S)Nc2ccc(Cl)cc2)CC1 | -0.046
16 | C=C(C)CNC(=S)Nc1cccc2cnccc12 | active: 3.1
17 | COCCn1c(SCC(=O)N2CCCc3ccccc32)nnc1-c1ccco1 | 0.326
18 | COC(=O)c1ccccc1NC(=O)C1CC=CCC1C(=O)O (configuration not stated) | 0.113
19 | O=C(CSc1nc2ccc([N+](=O)[O-])cc2[nH]1)NCCc1ccccc1 | -0.133
20 | Cc1ccc(C(=O)Nc2ccc3c4c(cccc24)CC3)cc1[N+](=O)[O-] | 0.279
21 | COc1ccc(C(=O)Nc2cccc(OC)c2)cc1 | 0.175
22 | O=C(CSc1ccc2ccccc2n1)N1CCC(c2noc3ccc(F)cc23)CC1 | -0.0915
23 | O=[N+]([O-])c1ccc2c(c1)C(O)n1nc(-c3ccc(Cl)cc3Cl)nc1S2 (configuration not stated) | 0.0785

Row | Structure (SMILES) | z-score
24 | O=C(O)c1sccc1SCc1ccc(Cl)cc1Cl | -0.536
25 | CN(CC#CCC(c1ccccc1)c1ccccc1)C(C)(C)C | 0.756
26 | CC(=O)N(c1ccccc1)c1c(F)c(F)c(F)c(F)c1F | 0.16
27 | CC(=O)c1cccc(NC(=O)C2CCCN(S(=O)(=O)c3cccc4cccnc34)C2)c1 (configuration not stated) | 0.941
28 | CS(=O)(=O)Nc1ccc(C2=NN(S(C)(=O)=O)C(c3ccc4c(c3)OCO4)C2)cc1 (configuration not stated) | -0.268
29 | CCOC(=O)c1c(C)[nH]c(C)c1C(=O)CSc1nnc(-c2ccncc2)n1Cc1ccccc1 | 0.179
30 | COc1ccc(-c2nnc(NC(=O)c3ccc(S(=O)(=O)N4CCCc5ccccc54)cc3)o2)cc1 | 2.07
31 | CC(C)Cc1[nH]c(=O)c(C#N)c2c1CCCC2 | 0.306
32 | CC(C)CN(C(=O)CSc1nncs1)c1c(N)n(CC(C)C)c(=O)[nH]c1=O | 0.163
33 | CCCN(CCC)C(=O)Cn1c(=O)n(CCCCC(=O)NCc2ccco2)c(=O)c2ccccc21 | -0.0485
34 | CCOC(=O)Cc1nnc(Nc2ccc(C)cc2)c2ccccc12 | -0.717
35 | COc1ccc(NC(=O)Nc2cccc(C(=O)N3CCOCC3)c2)cc1OC | 0.0471
36 | Cc1ccc(-n2nc3c(c2NC(=O)c2ccc4c(c2)OCO4)CSC3)cc1 | -0.00852
37 | Cc1ccc(NC(=S)C2=C(O)c3ccccc3N(C)S2(=O)=O)cc1 | -0.0624
38 | COc1ccc(/C=C/C(=O)c2ccc[nH]2)cc1OC | 0.97
39 | CCOC(=O)C1=C(CP(=O)(c2ccccc2)c2ccccc2)NC(=O)NC1c1ccc(OC)cc1 (configuration not stated) | -0.301
40 | CC(C)CCNC(=S)NC1CCCC1 | 0.0564
41 | CN(C)Cc1cc(CCNC(=O)c2ccc(Cl)cc2)ccc1O | 0.0103
42 | Cc1cc(C(=O)CSc2nnc(-c3ccccc3)n2-c2ccccc2)c(C)n1-c1ncn[nH]1 | -0.484
43 | Cn1c(=O)c2c(ncn2CC(=O)Nc2nc3ccc(F)cc3s2)n(C)c1=O | 0.54
44 | CC(C)C(OC(=O)c1cc2sccc2n1C)C(=O)NCC1CCCO1 (configuration not stated) | 0.112
45 | Cc1ccc(N(Cc2cc3cc(C)ccc3[nH]c2=O)C(=O)c2cccs2)cc1 | -0.171
46 | COC(=O)c1ccccc1NC(=O)Cn1c(=O)n(Cc2ccccc2)c(=O)c2c(C)c(C)sc21 | -0.187

Row | Structure (SMILES) | z-score
47 | Cc1ccc(-n2c(SCC(=O)NCCN3C(=O)CSC3=O)nnc2-c2ccccc2F)cc1 | -0.594
48 | Cc1ccc2oc(=O)n(CC(=O)OC(C)C)c2c1 | 0.627
49 | COc1ccc(NC(=O)c2c(Nc3ccccc3)sc(C(=O)c3ccc(F)cc3)c2N)cc1 | 0.0789
50 | COc1ccc(NC(=O)CCN2CC(C)OC(C)C2)c(OC)c1 (configuration not stated) | 0.0465
51 | O=C1CSC(c2cn(-c3ccccc3)nc2-c2cccs2)N1Cc1ccccc1 (configuration not stated) | 0.0123
52 | O=C(c1cccc(S(=O)(=O)N2CCCC2)c1)N1CCN(c2ccccc2F)CC1 | -1.1
53 | O=C(N/N=C/c1ccco1)C1COc2ccccc2O1 (configuration not stated) | -0.0331
54 | CCCNS(=O)(=O)c1ccc(N2CCCC2=O)c([N+](=O)[O-])c1 | 0.0118
55 | CCn1c(COc2ccccc2)nnc1SCC(=O)NC1CCCCC1 | -0.985
56 | COc1ccc(C(=O)COC(=O)CSCc2c(C)noc2C)cc1OC | -0.995
57 | COc1ccc(Cl)cc1Nc1ncnc2sc(C)c(S(=O)(=O)N3CCC(C)CC3)c12 | -0.241
58 | CCOC(=O)c1c(NC(=O)CCCN2CCOCC2)sc2c1CC(C)(C)OC2 | -0.14
59 | N#Cc1c(-n2ccnc2)cccc1-n1ccnc1 | 0.0872
60 | CCOC(=O)c1cc2c(ccn2C)n1CC(=O)N(Cc1ccccc1)c1ccc(F)cc1 | 1.2
61 | Cc1ccc(CCNC(=O)C2CCCN2S(=O)(=O)c2ccc3c(c2)CCC(=O)N3)cc1 (configuration not stated) | -0.412
62 | Cc1ccc2c(c1)NC(=O)c1cccnc1N2 | 0.0515
63 | O=C(CCn1c(=O)sc2ccccc21)NCc1ccco1 | 0.309
64 | CC(C)Cn1cc(C(=O)NC2CCN(Cc3ccccc3)CC2)c2c3ccccc3n(C)c2c1=O | -0.13
65 | COc1ccccc1CNC(=O)CCS(=O)(=O)c1cccc2nonc12 | -0.0177
66 | CCN(CC)CCCN1C(=O)C(O)=C(C(=O)c2ccc(C)o2)C1c1ccco1 (configuration not stated) | -0.221
67 | Cc1ccc(NC(=O)Cn2nnc(C(=O)NCc3cccs3)c2N)cc1 | 0.163
